We go through six molecules from publication PMC12136788.

The labels stand for the following.
B1: chr5:37680062:37680063:+_ENSMUSG00000029121_ENSMUST00000031004|mus_hu|mus_mus_mus_hu_False|1_88 (ssRNA)
RNA: GGGAGUUCUACAGUCCGACGAUCUUUGGGUGUAGCUGGUACCUCGUACACAGGCCCGUCAUACAUGCCCCUGGAAACCCCUUGCAAUCCAAAAACCUUAUUCCUGAUUUUGACGCGCUGGUACAGGUGCUCCGGGAAUGGCUUCAACAGAGGAUUGAGCAUCA
B2: chr3:154749246:154749247:-_ENSMUSG00000053870_ENSMUST00000066568|mus_mus|FALSE|FALSE (ssRNA)
RNA: GGGAGUUCUACAGUCCGACGAUCGUUUUGUUACGUGUUGUCUCACUAUGAGAAGUUGAGCAAUACAAUCCUCCAUAUCACCUAGAAUUUUAUUGGUCCAAAUUUCAAAAGAAGAUAGAAAAGCUUUAAAGAUAUGUUAUGUUUCAACAGAGGAUUGAGCAUCA
B3: chr1:165664616:165664617:-_ENSG00000143149_ENST00000354775|hu_hu|motif|central (ssRNA)
RNA: GGGAGUUCUACAGUCCGACGAUCCUUUGCAUUUUGAACAGCCAAAUUUACUUCCUUUUCUCCUGAACAUGUGAAAGUAGCGGUCACUCGGCCGGUUGCUGGCUCGAAAGCUUUCUCGGUACCGGAGGCGUCCGCCGGCUCCACCAACAGAGGAUUGAGCAUCA
B4: 45394817_45395722_779_CDS_ENSG00000175387_ENST00000356825|human|control|control (ssRNA)
RNA: GGGAGUUCUACAGUCCGACGAUCUGGAGGCAAAACUGGUGUCUCAACUCUCUGAUAGUGGUAAGGGUUUACACAUACUUCAUCCUUUUUAAGAUUAAAAGCAUAUUCGCAGUUUUCAAUUGCCUUGAGUUCAUGAUGACUGUGCAACAGAGGAUUGAGCAUCA
B5: chr17:27613171:27613172:-_ENSG00000108256_ENST00000225388|hu_hu|FALSE|FALSE (ssRNA)
RNA: GGGAGUUCUACAGUCCGACGAUCCGUAGGAGAGGCCAGAGGAUUUUGACUUUCUAUCUCGUAGUCCUUUGAGAGAAACACUAAAGCACCUUGACUACUGGUGUCUGCUUUCUGCAGGUCACCUAUAUGACUGGGUUCCAAGGACAACAGAGGAUUGAGCAUCA
B6: chr2:9570881:9570882:+_ENSG00000119203_ENST00000238112|hu_mus|hu_hu_hu_mus_False|28_108 (ssRNA)
RNA: GGGAGUUCUACAGUCCGACGAUCACUUGUCUUCUGUAGGAACCAGGGCAGGGCUCCACAGUGAUCCAAAUGGAAAUGACUGAUCAACAGAAGGUCGAUCUCAGCUGGGUCAAUUAAGUCAAUGUAAGGAAGGGCAUCCAUUCCCAACAGAGGAUUGAGCAUCA

This is one part of the list.

The assay concerns the target T1, UNK ZnF1-3 (human, UniProt Q9C0B0 31-174).
T1 sequence: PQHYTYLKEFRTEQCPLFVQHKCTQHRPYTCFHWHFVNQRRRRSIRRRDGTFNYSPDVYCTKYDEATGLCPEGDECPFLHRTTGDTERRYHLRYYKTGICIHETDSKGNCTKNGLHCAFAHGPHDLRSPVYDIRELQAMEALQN
Kind of assay: nsRBNS (natural sequence RNA bind-n-seq); RBNS binding buffer (assumed for nsRBNS): 25 mM Tris pH 7.5, 150 mM KCl, 3 mM MgCl2, 0.01% Triton X-100, 500 ug/ml BSA, 20 U/ml SUPERase-In, 4 C; UNK is unkempt and MSI1 is Musashi-1; names of the RNAs are library labels; protein concentration not given here; high values mean tight binding.
In the case of B1, the binding signal is 0.813 enrichment R.

Consider B2, for which the binding signal turned out to be 1.64 enrichment R.

B3 showed a binding signal of 0.651 enrichment R.

Turning to B4, the binding signal came out at 0.594 enrichment R.

As to B5, the binding signal was determined as 1.32 enrichment R.

For the molecule B6, the binding signal was found to be 1.3 enrichment R.
